Results: article PMC4336329 (PLoS ONE, 2015)
Out of some 310,000 compounds screened, about 2,200 (0.71%) showed an effect of 50% or more. Effects have a minus sign here. The list shows a part of the results.

target: human ether-à-go-go-related gene (hERG) potassium channel (human, UniProt Q12809); experiment: primary screen, population patch clamp on CHO cells stably expressing hERG
Sequence (Q12809 whole entry, looked up): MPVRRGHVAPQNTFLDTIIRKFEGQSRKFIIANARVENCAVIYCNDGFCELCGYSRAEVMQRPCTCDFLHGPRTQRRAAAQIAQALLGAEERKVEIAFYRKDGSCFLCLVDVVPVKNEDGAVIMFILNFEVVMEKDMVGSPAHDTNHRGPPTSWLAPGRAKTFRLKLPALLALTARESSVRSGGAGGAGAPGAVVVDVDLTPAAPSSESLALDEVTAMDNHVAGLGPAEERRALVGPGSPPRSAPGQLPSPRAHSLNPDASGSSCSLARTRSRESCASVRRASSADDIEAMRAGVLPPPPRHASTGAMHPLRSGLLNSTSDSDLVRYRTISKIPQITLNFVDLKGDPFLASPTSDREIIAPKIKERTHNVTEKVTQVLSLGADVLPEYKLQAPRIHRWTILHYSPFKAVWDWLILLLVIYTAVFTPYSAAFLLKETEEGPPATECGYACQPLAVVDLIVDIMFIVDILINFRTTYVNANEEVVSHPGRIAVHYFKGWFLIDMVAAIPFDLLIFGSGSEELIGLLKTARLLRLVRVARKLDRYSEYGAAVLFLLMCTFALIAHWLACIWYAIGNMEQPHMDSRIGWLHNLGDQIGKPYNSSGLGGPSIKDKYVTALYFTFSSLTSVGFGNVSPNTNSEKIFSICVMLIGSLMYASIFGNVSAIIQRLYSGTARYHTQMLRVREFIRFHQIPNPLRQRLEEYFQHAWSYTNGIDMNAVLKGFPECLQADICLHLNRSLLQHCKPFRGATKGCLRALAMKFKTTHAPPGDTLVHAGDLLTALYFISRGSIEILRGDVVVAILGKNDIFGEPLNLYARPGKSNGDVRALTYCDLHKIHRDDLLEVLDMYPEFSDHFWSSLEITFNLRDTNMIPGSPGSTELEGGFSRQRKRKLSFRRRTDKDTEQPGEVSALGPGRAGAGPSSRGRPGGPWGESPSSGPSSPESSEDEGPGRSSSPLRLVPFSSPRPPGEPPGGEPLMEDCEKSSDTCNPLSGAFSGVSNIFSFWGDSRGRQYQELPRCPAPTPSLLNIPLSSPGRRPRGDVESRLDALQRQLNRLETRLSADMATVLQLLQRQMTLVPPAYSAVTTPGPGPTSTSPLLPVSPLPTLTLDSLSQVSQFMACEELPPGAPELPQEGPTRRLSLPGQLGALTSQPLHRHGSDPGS

Structure (SMILES)	hERG current change (%, negative = inhibition) at 1uM [%]
Cc1cccc(OCC(=O)N2CCc3ccccc3C2)c1	13.9
COc1ccc(N2CCN(CCNC(=O)CCC(=O)NNc3nc4ccccc4c4nc(C)nn34)CC2)cc1	-3.6
N#CC(=C1CCCC1)c1nc(-c2ccccc2)cs1	11.9
CN1CCN(CC(O)(c2ccc(Cl)cc2)c2ccc(Cl)cc2)CC1	-49.5
COc1ccc(NC(=O)CSCC(=O)Nc2ccc(S(=O)(=O)N3CCCCC3)cc2)cc1	-9.44
C=CCN1CC2CC3(COc4cc(C)cc(C)c4)C=CC2(O3)C1=O (stereo not shown)	5.04
CC(=O)Nc1ccc(/C=C/C(=O)c2ccccc2)cc1	11.6
Cc1cc(NC(=O)CC2CCCC2)n(-c2nc3ccccc3[nH]2)n1	-5.12
c1ccc(OCc2nn3c(-c4ccccn4)nnc3s2)cc1	12.2
CC1COc2ccccc2N1C(=O)c1cccnc1Cl (stereo not shown)	18.3
CCN1CCN(c2c(Cl)cccc2NC(=O)c2ccc([N+](=O)[O-])cc2)CC1	-15.9
Cc1ccc(OCc2cc(C(=O)NC3CCc4ccccc43)no2)cn1 (stereo not shown)	13.8
COc1ccc(NC(=S)NCCSc2ccc(C)cc2)c(OC)c1	12.6
O=C(/C=C/NNC(=O)c1ccccc1)c1ccc([N+](=O)[O-])cc1	2.79
COc1ccc(-c2nc(NC(=O)C3=NN(c4cccc(C)c4)C(=O)CC3)sc2C)cc1	3.79
COCC(=O)N(c1ccc(C(C)C)cc1)C1C=CS(=O)(=O)C1 (stereo not shown)	18.2
CCCCn1c(SCC(=O)OC)nc2c1c(=O)n(C)c(=O)n2C	3.17
CCOC(=O)c1ccc(CNC(=O)c2cc(COc3ccccc3SC)on2)o1	-2.59
COc1cc(SC#N)ccc1N=Cc1c(C)[nH]n(-c2ccc(C)cc2C)c1=O	2.31
CCOc1cc(CNc2ccc(N3CCOCC3)cc2)cc(Br)c1OCC	17.2
CCOc1ccc(CC(=O)NNC(=O)NC2CCCCC2)cc1	14.2
CN(C)c1cc[n+](CC(=O)N2c3ccccc3Sc3ccccc32)cc1.[Cl-]	3.77
O=C(O)C1Cc2ccccc2CN1C(=O)COc1ccc(Cl)cc1Cl (stereo not shown)	10
CC1=CC(C)(C)N(C(=O)CN2C(=O)c3ccccc3C2=O)c2ccccc21	7.7
NC[C@H](O)c1ccc(O)c(O)c1.O.O=C(O)C(O)C(O)C(=O)O	8.62
NN/C(=C\[N+](=O)[O-])Nc1ccc(Cl)cc1	18.9
Cc1ccc(C(=O)COC(=O)CNC(=O)c2ccc(N3C(=O)c4ccccc4C3=O)cc2)cc1C	11.6
CCOc1ccccc1OCC(=O)OCC(=O)c1c(N)n(CC(C)C)c(=O)n(C)c1=O	-9.86

Structure (SMILES)	hERG current change (%, negative = inhibition) at 1uM [%]
CC1CCN(c2oc(-c3cccc4ccccc34)nc2C#N)CC1	10.2
Cc1ccc(OCC(=O)N2CCN(C(=O)Cc3ccccc3)CC2)cc1	-9.66
CCOc1ccc(S(=O)(=O)N2CCCC(C(=O)Nc3ccccc3)C2)cc1 (stereo not shown)	10.6
Cc1ccccc1C(=O)Nc1ccc(C(=O)O)cc1NC(=O)c1ccccc1C	13.8
CCOc1ccc(-c2csc(NC(=O)c3cccc(N4C(=O)CCC4=O)c3)n2)cc1	13.5
Cc1cccc(-c2ncc(S(=O)(=O)C(C)(C)C)c(N)n2)c1	11.7
O=C(Nc1ccnc(-c2ccncc2)n1)c1cccs1	-5.67
COc1ccccc1/C=C/C=c1\sc2nc(=O)c(Cc3ccccc3)nn2c1=O	12.4
Cc1cc(NC(=O)c2cnn3cccnc23)nn1CC(=O)Nc1cccnc1	8.53
N#Cc1cccc(C(=O)Nc2cccc(S(=O)(=O)N3CCCC3)c2)c1	8.83
O=S(=O)(Nc1ccc(S(=O)(=O)Nc2cccc3ccccc23)cc1)c1ccccc1	11
O=C1C=C(Nc2cccc(O)c2)CC(c2ccco2)C1 (stereo not shown)	2.89
Cc1ccc(S(=O)(=O)N[C@@H](CC(C)C)C(=O)N2CCC(C(=O)N[C@@H](Cc3ccccc3)C(=O)O)CC2)cc1	10.8
Cc1onc(-c2ccccc2Cl)c1C(=O)NC(=S)Nc1ccccc1C(N)=O	7.18
CCOC(=O)c1ccc(NC(=S)NCCCN2CCN(C3CCCCC3)CC2)cc1	-2.46
O=C(NC(=S)NNC(=O)c1ccccc1[N+](=O)[O-])c1ccc(Br)cc1	15.2
CCc1nc(SCc2ccc(OCC(C)C)cc2)n[nH]1	7.29
O=C(Cc1ccccc1)NNC(=O)C1CCN(c2ncccn2)CC1	7.9
Cl.O=C(OCCN1CCCCC1)c1cccc(F)c1	5.77
CCOc1ccc(-n2c(SCC(=O)Nc3ccc(CC)cc3)nc3n[nH]c(C)c3c2=N)cc1	7.85
CCOc1ccccc1N(C)S(=O)(=O)c1ccc2[nH]cc(C(=O)N(CCOC)CCOC)c(=O)c2c1	1.98
O=C(COC(=O)c1cccc(O)c1)Nc1ccc(S(=O)(=O)N2CCOCC2)cc1	8.4
Nc1ccccc1C(O)(Cc1ccccc1)c1ccccc1 (stereo not shown)	13.6
CCCCC(=O)Nc1ccc(C(=O)Nc2ccc(S(=O)(=O)Nc3nccc(C)n3)cc2)cc1	12.5
CNc1ccccc1NC(=O)C1CCCN1C(=O)OCc1ccccc1 (stereo not shown)	0.618
CN(C(=O)Nc1ccc(Cl)cc1)c1c2c(nn1C)CCCC2	11.9
Cn1c(=O)c(C(=O)CN2CCCc3ccccc32)c(N)n(Cc2ccccc2)c1=O	19.5
